Two molecules from patent US11530246B2, “Regulated synthetic gene expression systems” (TRUSTEES OF BOSTON UNIVERSITY, priority 2019, dated 2022) can be followed below.

The subject of this test is synTF-responsive reporter constructs. Nature of the test: synTF library activity on cognate and non-cognate reporters, HEK293FT reporter lines. The class given is cell-based, human. Particulars: 4 tandem DBMs upstream of minimal promoter. The text has this:
Described herein is a workflow for creating 6-unit ZF arrays that target defined 20-bp DBMs, a length that in principle provides unique addressability in the human genome. The workflow leverages modular assembly and functional selection of 6-unit arrays from of 2-unit building blocks. Using this approach, a library of eleven 6-unit arrays was created with binding specificities chosen to maximize orthogonality to the human genome (see e.g., US Patent Publication US20180057838, the content of which is incorporated herein by reference in its entirety). We fused these arrays to human transcriptional effector domains (p65 activation domain, KRAB/HP1a silencing domains) to create humanized minimal synTFs (see e.g., FIG. 1A). To test their activity, corresponding HEK293FT reporter lines were generated harboring synTF-responsive reporter constructs, composed of 4 tandem 20-bp DBMs upstream of a minimal promoter driving transcription of a fluorescent protein (see e.g., FIG. 1B). […] Next, RNA-seq measurements were used to map the impact of the synTFs on genome-wide transcription. synTF regulation profiles were highly specific, showing minimal effects on native transcript profiles (see e.g., FIG. 1E-1G). […] A rigorous framework was used to perform this analysis, including assessing profiles against 3 independent biological references. […]

B1: ZF10: 6-unit zinc finger array, SEQ ID NO: 3 (protein)
chain: SRPGERPFQCRICMRNFSRRHGLDRHTRTHTGEKPFQCRICMRNFSDHSSLKRHLRTHTGSQKPFQCRICMRNFSVRHNLTRHLRTHTGEKPFQCRICMRNFSDHSNLSRHLKTHTGSQKPFQCRICMRNFSQRSSLVRHLRTHTGEKPFQCRICMRNFSESGHLKRHLRTHLRGS
Turning to B1, the “activation of cognate reporter” value is given as “exceptionally high in vivo activity”.

B2: ZF1: 6-unit zinc finger array, SEQ ID NO: 1 (protein)
chain: SRPGERPFQCRICMRNFSEEANLRRHTRTHTGEKPFQCRICMRNFSDHSSLKRHLRTHTGSQKPFQCRICMRNFSQSANLLRHTRTHTGEKPFQCRICMRNFSDPSSLKRHLRTHTGSQKPFQCRICMRNFSQQTNLTRHTRTHTGEKPFQCRICMRNFSDATQLVRHLRTHLRGS
For B2, the “activation of cognate reporter” value is reported as “exceptionally high in vivo activity”.
